{"source": "paper PMC11533862", "about": "(Science (New York, N.Y.), 2019)", "proteins": {"B1": {"name": "GluA2 (AMPA-type glutamate receptor pore-forming subunit), tetramer (receptor)", "chain": "not shown", "modifications": "glycosylation at N241"}}, "molecular_target": "the molecule itself", "assay": "cryo-EM structure", "data": [{"protein": "B1", "values": [{"measurement": "stoichiometry N", "value": 4}]}]}
